# Source: PubChem BioAssay AID651820 (National Center for Advancing Translational Sciences (NCATS), 2012)
# Where “and” joins values, the source holds several entries; their conditions need not be identical. Equal entries are not always repeated. Hit rate of the full screen: of about 340,000 compounds, about 12,000 (3.5%) were called active. Inconclusive means that the source gave no clear call. Such entries were picked first, then a sample of the others. Calls follow the shape of the dose curve; as a rule, active = well fitted inhibition curve with a large enough effect; inconclusive = small, poorly fitted or top-dose-only effect, or another doubt; inactive = no such curve, though single readings can be large or run the other way. Where the call is inconclusive, the potency comes from a doubtful curve fit. The source holds several records for some structures; these can differ, active in one and inactive in another.
# Assay: qHTS Assay for Inhibitors of Hepatitis C Virus (HCV)
# Settings: Huh7.5.1 HCVcc-Cre (HCVcc is cell-culture hepatitis C virus) infection, luciferase reporter, 44 h; activity change, negative = inhibition: at 41.8 µM (top of the series) unless noted
# How it was run: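 Seed cells (1,000/well) for 4 h; treat with compound and infect with HCVcc-Cre, moi about 0.5. Incubate 44 h, then detect luciferase activity.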
# % is scaled to controls: 0 for no effect and ±100 for the full control effect; potency is read from the fitted curve at half-maximal effect; tags tell the direction and shape of the fitted curve.
SMILES,"activity change, negative = inhibition",Potency
O=C(CCSc1ccc(F)cc1)NNC(=O)c1ccccc1Cl,inactive: 6.63%,–
COc1cccc(NC(=O)c2ccccc2)c1,–,"inconclusive: 1 µM [inhibitor, full curve, poor fit]"
OC1(Cc2ccccc2)CCNCC1,inactive: 14.6%,–
COc1ccc(C(=O)NC(=S)Nc2nc(C)cc(C)n2)cc1Br,–,"inconclusive: 10 µM [inhibitor, partial curve]"
COc1ccccc1N1CCN(C(=O)C2CCN(S(=O)(=O)c3ccc(C)cc3)CC2)CC1,–,"inconclusive: 31.6 µM [inhibitor, single point]"
O=C1CCc2cc(S(=O)(=O)N3CCCCC3)cc3c2N1CC3,inactive: -6.78%,–
NN=C(N)N,–,"inconclusive: 0.562 µM [inhibitor, full curve, poor fit]"
CCc1ccccc1NC(=S)N1CCC(C(=O)c2ccc(F)cc2)CC1,–,"inconclusive: 20 µM [inhibitor, single point]"
O=C(Nc1ccncc1)Nc1ccc(Cl)cc1Cl,–,"inconclusive: 22.4 µM [inhibitor, single point]"
CCOc1ccccc1NC(=O)c1ccc2nccnc2c1,–,"inconclusive: 11.2 µM [inhibitor, single point]"
CC(C)(C)c1ccc(-n2ncc3c2CCCC3NC(=O)C2=NNC(=O)CC2)cc1 (centres undefined),–,"inconclusive: 11.2 µM [inhibitor, partial curve]"
COC(=O)C1=C(C)N(c2ccc(OC)cc2)C(C)=C(C(=O)OC)C1c1ccc(OC)cc1,inactive: -22.1%,–
CCCOc1ccccc1OCC(=O)Nc1cccc(S(=O)(=O)NC2=NCCC2)c1,–,"inconclusive: 7.94 µM [inhibitor, partial curve]"
O=C(NCCc1ccccc1)c1cc2ncc(Br)cn2n1,inactive: 9.8%,–
CCOc1ccccc1NC(=O)CSc1nnnn1C1CCCC1,–,"inconclusive: 2.82 µM [inhibitor, single point]"
O=C(CSc1ccc(-c2ccccc2)nn1)N1CCCCC1,inactive: -0.963%,–
O=C(NCCN1CCOCC1)c1ccc(NS(=O)(=O)c2cccc([N+](=O)[O-])c2)cc1,inactive: 19%,–
Cc1cc2ncn(C(=O)N3CCCCCC3)c2cc1C,inactive: 18.9%,–
Cn1c(Cl)nc2c1c(=O)n(Cc1cccc(Br)c1)c(=O)n2C,–,active: 12.6 µM
Cc1ccc(Nc2ccc([N+](=O)[O-])cn2)cc1Cl,–,"inconclusive: 5.62 µM [inhibitor, single point]"
Cc1ccccc1-c1nc(S(=O)(=O)c2ccccc2)c(N2CCCC2)o1,–,"inconclusive: 12.6 µM [inhibitor, single point]"
COCCn1c(SCCOc2ccccc2)nc2ccccc2c1=O,–,"inconclusive: 10 µM [inhibitor, partial curve]"
CC1Cc2ccccc2N1Cc1cc(=O)n2ccsc2n1 (centres undefined),–,"inconclusive: 7.94 µM [inhibitor, partial curve]"
COc1ccc(C2C=C(C34CC5CC(CC(C5)C3)C4)NC(=S)N2)cc1 (centres undefined),inactive: -16.3%,–
Cc1c(Cl)sn(-c2ccc(Cl)cc2)c1=O,–,active: 2.51 µM

SMILES,"activity change, negative = inhibition",Potency
COc1cc2cc(CCCOC(=O)c3ccc4c(c3)OCO4)oc(=O)c2cc1OC,–,"inconclusive: 3.98 µM [inhibitor, full curve, poor fit]"
Cc1ccc2[nH]cc(C(=O)CCl)c2c1,–,active: 25.1 µM
O=C(NC(=S)N1CCN(C/C=C/c2ccccc2)CC1)c1ccc(F)cc1,–,"inconclusive: 10 µM [inhibitor, partial curve]"
CCC1=NN(C(=O)c2ccccc2Br)C(O)(c2ccc(Br)cc2)C1 (centres undefined),inactive: -8.92%,–
Cc1ccc(-c2nnc(SCC(=O)NC3CCCC3)n2C)cc1,inactive: 6.41%,–
O=C(Cn1cnc2c(cnn2-c2ccc(Cl)cc2)c1=O)NC1CCCCC1,inactive: 12.4%,–
CC1(c2ccccc2)CC(C)(C)N(C(=O)CSc2nnc(N)s2)c2ccccc21 (centres undefined),–,"inconclusive: 31.6 µM [inhibitor, single point]"
COc1ccc(C(CNC(=O)c2oc3ccc(C)cc3c2C)N2CCCCC2)cc1 (centres undefined),–,"inconclusive: 15.8 µM [inhibitor, single point]"
COc1cc(/C=N/Nc2ccc(S(N)(=O)=O)cc2[N+](=O)[O-])cc(OC)c1O,inactive: -17.9%,–
COc1ccc(NC(=O)CN(C)C(=O)CNC(=O)c2sc3ccccc3c2Cl)cc1,–,"inconclusive: 14.1 µM [inhibitor, partial curve]"
O=C(O)CC12CC3CC(C1)CC(n1ncc(NCC4CCCO4)c(Cl)c1=O)(C3)C2 (centres undefined),inactive: 1.14%,–
COCCCn1c(SCCc2ccccc2)nc2cc(OC)c(OC)cc2c1=N,–,active: 12.6 µM
CCN(CCO)c1ccc(-n2c(N)c(C(=O)OC)c3nc4ccccc4nc32)cc1,–,"inconclusive: 22.4 µM [inhibitor, single point]"
O=C(c1cc2c(s1)-c1ccccc1OC2)N1CCCC1,inactive: -28.3%,–
CN(C)CCNS(=O)(=O)c1ccc(N2CCc3ccccc32)c([N+](=O)[O-])c1,–,active: 10 µM
C#CNC(=O)C1(CC=C)CCNCC1,–,"inconclusive: 22.4 µM [inhibitor, partial curve]"
C=C(C)Cn1c(CCNC(=O)C(C)C)nc2ccccc21,–,"inconclusive: 10 µM [inhibitor, partial curve]"
CCCCNS(=O)(=O)c1ccc(NC(=O)C(Sc2ccccc2)c2ccccc2)cc1 (centres undefined),–,"inconclusive: 31.6 µM [inhibitor, single point]"
C=CCc1ccc(OC(=O)c2ccccc2)c(OC)c1,inactive: 19.5%,–
Cc1cc(C(=O)COC(=O)c2ccc(O)cc2)c(C)n1CC(F)(F)F,–,"inconclusive: 14.1 µM [inhibitor, single point]"
N#Cc1ccc(C(=O)Nc2ccn(-c3ccccc3)n2)cc1,–,"inconclusive: 11.2 µM [inhibitor, single point]"
CNc1ccc(C(O)(C(F)(F)F)C(F)(F)F)cc1C(O)(C(F)(F)F)C(F)(F)F,–,"inconclusive: 31.6 µM [inhibitor, single point]"
COc1ccc(Cl)c2sc(NC(=O)C3=COCCO3)nc12,–,"inconclusive: 10 µM [inhibitor, partial curve]"
CCC(CO)Oc1cc(NCc2ccccc2)c2ncn(C3CCCC3)c2c1 (centres undefined),–,"inconclusive: 2.82 µM [inhibitor, full curve, poor fit]"
CCn1c(=O)c(CCC(=O)N2CCN(c3ccccn3)CC2)c(C)c2c(C)nn(-c3ccccc3)c21,inactive: 15.1%,–

SMILES,"activity change, negative = inhibition",Potency
CCOc1ccc(NC(=O)CN(C)C(=O)c2c(-c3c(F)cccc3Cl)noc2C)cc1OCC,–,"inconclusive: 31.6 µM [inhibitor, single point]"
COc1ccc(N(CC(=O)Nc2ccc(Cl)cc2)S(=O)(=O)c2c(C)n[nH]c2C)cc1,inactive: -17.9%,–
Cc1cccc(CNC(=O)C(C)n2nc(C)c3c(C)n(-c4ccccc4)nc3c2=O)c1 (centres undefined),–,active: 10 µM
COC(=O)CN1C(=O)[C@H]2[C@@H](c3ccc(C)o3)N3C(=O)CN(CC4CC4)C(=O)[C@@]3(Cc3ccccc3)[C@H]2C1=O,inactive: -10.4%,–
Cc1ccc(NC(=O)N2CCN(c3ncccc3C(F)(F)F)CC2)cc1,–,"inconclusive: 22.4 µM [inhibitor, single point]"
Cc1cccc(Nc2nc(N)nc(CN3CCN(c4ccccc4F)CC3)n2)c1,–,"inconclusive: 31.6 µM [inhibitor, single point]"
COc1cc(NC(=O)c2cccc([N+](=O)[O-])c2C)ccc1NC(=O)c1ccco1,–,"inconclusive: 0.447 µM [inhibitor, full curve, poor fit]"
O=C(CCC(=O)OCC(=O)c1cccc([N+](=O)[O-])c1)Nc1ccccc1Cl,–,"inconclusive: 5.62 µM [inhibitor, single point]"
CCOC(=O)N1CCN(C(=O)CSc2nnc(-c3cc(OC)ccc3OC)o2)CC1,–,active: 10 µM
O=c1c2ccccc2nc(/C=C/c2ccc(Cl)cc2)n1CCO,–,"inconclusive: 3.98 µM [inhibitor, single point]"
COc1ccc(/C=C/C(=O)OCC(=O)NCc2ccccc2)cc1OC,inactive: 7.55%,–
O=[N+]([O-])c1cccc(-c2ccc3nnc(SCc4cccnc4)n3n2)c1,inactive: -1.44%,–
Cc1ccc(CONC(=O)c2cccc([N+](=O)[O-])c2)cc1,–,"inconclusive: 2.82 µM [inhibitor, full curve, poor fit]"
CCOc1ccc(OCCC(=O)N(CCC2=CCCCC2)c2c(N)n(Cc3ccccc3)c(=O)[nH]c2=O)cc1,–,"inconclusive: 11.2 µM [inhibitor, partial curve, poor fit]"
CCN1CCN(c2c(Cl)cccc2NC(=O)c2ccc3c(c2)OCCO3)CC1,–,"inconclusive: 12.6 µM [inhibitor, single point] and inconclusive: 5.62 µM [inhibitor, single point]"
C(=N\Nc1nc2ccccc2[nH]1)/c1cccc2nccnc12,inconclusive: -65.9% [inhibitor],–
O=C(NCC(c1ccco1)N1CCc2ccccc2C1)c1ccc([N+](=O)[O-])cc1 (centres undefined),–,"inconclusive: 31.6 µM [inhibitor, single point]"
CCOc1ccccc1NC(=O)C1CCCN(c2c(CC)c(C)nc3ncnn23)C1 (centres undefined),–,active: 12.6 µM
COCCCNC(=O)CC1Oc2ccccc2NC1=O (centres undefined),inactive: 6.46%,–
N#Cc1ccc(-c2ccccc2)nc1Sc1ccc(F)cc1,inactive: 10.6%,–
Nc1ccc(C=C2C=Cc3ccccc32)cc1,–,"inconclusive: 8.91 µM [inhibitor, partial curve]"
COc1ccccc1OCc1nc(C#N)c(N2CCCC2)o1,inactive: -19.1%,–
Cn1c(N)c(C(=O)CSc2nn(-c3ccc(F)cc3)c(=S)s2)c(=O)n(C)c1=O,–,active: 7.08 µM
CCOc1ccc(Cc2nnc(SCC(=O)c3ccc(OC)cc3)o2)cc1,–,active: 8.91 µM
